Laboratory results: PubChem BioAssay AID1814 (Broad Institute, 2009)
Hit rate of the full screen: of about 300,000 compounds, about 22,000 (7.3%) were called active. This list was built around the results that the source calls inconclusive (neither active nor inactive); the mix of calls is not that of the screen. No stated cut-off is given here; in the data, active means activity score below about -60%; inconclusive means mostly about -28% to -61%; inactive means positive scores.

Experiment: Activators via SNCA 5'UTR binding, MLPCN (AID 1814)
Conditions: alpha-synuclein 5'UTR reporter, activators screen; hits give low values; tested at 7.5 µM

Activity score, inactive:
Cc1cc(C)cc(Oc2ncnc3c2ncn3Cc2c(Cl)cccc2Cl)c1 35%
S=C(Nc1cccnc1)Nc1cccc2cnccc12 66%
Nc1nonc1-n1nnc(C(=O)N/N=C/c2cc(Br)ccc2O)c1CSC1=NCCS1 94.1%
CCN1CCN(Cc2ccc(NC(=O)c3ccc(C)c(NC(=O)c4ccno4)c3)cc2C(F)(F)F)CC1 67.1%
COc1ccc(/C=C2\SC(=O)N(CCC(=O)Nc3ccccc3)C2=O)cc1OC 82%
CCc1c(C)c(C#N)c2nc3ccccc3n2c1Cl 105%
Cn1nc([N+](=O)[O-])nc1Sc1nnc(-c2ccccc2)o1 91.9%
CCOc1cc(N2CCOCC2)c(OCC)cc1NC(=O)c1cc(-c2ccco2)nc2ccccc12 114%
Cc1csc(N/N=C/c2ccccn2)n1 68.7%
CC(C)c1ccc2c(c1)C(N1CCNCC1)Cc1ccc(F)cc1S2 (configuration not stated) 74.8%
COC(=O)N/N=C\c1ccc(-c2cc(Cl)c(Cl)cc2Cl)o1 54.5%
COc1cccc(/C=N/NC(=O)c2cc3c(OC)cccc3[nH]2)c1O 85.5%
CCC1CCCCN1S(=O)(=O)c1ccc2c(c1)CCN2C(C)=O (configuration not stated) 57%
Cc1nc2nc(N)nn2c(C)c1C/C=C/c1ccccc1 46.3%
Cc1cc(NCCCn2ccnc2)n2ncc(-c3ccc(Cl)cc3)c2n1 59.8%
Cc1cccc(C)c1N=C1SC(CC(=O)Nc2c(C)cccc2C)C(=O)N1CCc1ccccn1 (configuration not stated) 67.2%
CCOc1ccc(OCc2cccc(C(=O)N/N=C/c3cccnc3)c2)cc1 87%
Cn1cc(C(=O)N/N=C/c2c(O)ccc3ccccc23)ccc1=O 96.3%
Cc1onc(-c2c(Cl)cccc2Cl)c1C(=O)N/N=C(\N)COc1ccc(Cl)cc1 89.3%
N/C(=N\OC(=O)c1ccccc1Cl)c1ccccn1 84.4%
Cc1cc(N)c2cc(NC(=O)/C=C/c3ccccc3Cl)ccc2n1 107%

Activity score, active:
O=C(Nc1ccon1)c1cc2c(s1)CCCC2 -113%
O=C(Nc1ccc(O)cc1)c1ccc(NC(=O)c2ccco2)cc1 -72.7%
CCCSc1nsc(NC(=O)Nc2ccc(F)cc2F)n1 -129%
Nc1c2c(nc3sc4c(c13)CCCC4)-c1ccccc1CC2 -75.3%

Activity score, inconclusive:
COc1ccc(-c2cc3c(=O)n(CC(=O)N4CCN(C)CC4)ncn3n2)cc1 -49.3%
Nc1nonc1-c1noc(N2CCCCC2)n1 -51%
COc1ccccc1N/N=C/c1c(CO)cnc(C)c1O -22.9%
COc1ccc(Nc2nnc(SCC(=O)/C=C3/N(C)c4ccccc4C3(C)C)s2)cc1 -21.6%
CSc1ccccc1OCc1cc(C(=O)NC2CCOC2)no1 (configuration not stated) -59.2%
CN(C(=O)CCS(=O)(=O)c1ccc2c(c1)oc(=O)n2C)C1CCCCC1 -42%
COc1cccc2cc(CC(=O)c3ccc(C)c(C)c3)c(=O)oc12 -47.2%
COc1ccc2[nH]c3ccc(OC)cc3c2c1 -60%
O=c1ccc2ccc(OCCOc3cccc(Cl)c3)cc2o1 -59.2%
CN1CCSc2ccc(C(=O)NCc3ccccc3F)cc21 -53.6%
CC(Oc1ccccc1)C(=O)Nc1cccc(-c2nc3ccccc3[nH]2)c1 (configuration not stated) -38.4%
Cc1ccc(CSc2nc3ncccc3[nH]2)cc1 -59%
Cc1ccc(N2C(=O)N(CC(=O)Nc3ccccc3C)C(=O)C2C)cc1 (configuration not stated) -44.2%
Cc1nc2ccccc2nc(C)c1=NO -46.9%
O=C1N=C(c2ccccc2)S/C1=C\c1cccs1 -51.8%
N/C(=N\OC(=O)CSc1ccccc1)c1cccc([N+](=O)[O-])c1 -57.5%
O=C1c2ccccc2C(Nc2ccc(Cl)cn2)N1c1ccccn1 (configuration not stated) -38.9%
O=C(Nc1nccs1)C12CC3CC(C1)CC(C(=O)Nc1nccs1)(C3)C2 -49.4%
COc1ccc(C(=O)CCc2nc3ccccc3s2)cc1 -55.9%
CC(C)c1nnc(NC(=O)CC(C)c2ccccc2)s1 (configuration not stated) -55.7%
O=C(c1ccccc1)c1nc[nH]c1C(=O)Nc1ccccn1 -50.7%
Cn1c(SCC(=O)c2ccc(F)cc2)ncc(C(=O)Nc2ccccc2)c1=O -58.6%
Cc1ccc(C(=O)Nc2nnc(C)s2)cc1 -52.5%
O=C(NCCC1=CCCCC1)c1c(O)nc2ccccn2c1=O -52.5%
Nc1nnc(SCc2nnc(-c3ccccc3)o2)s1 -43%
Cc1ccc(OCc2cc(C(=O)Nc3ccccc3)oc2C)cc1 -54.5%
CCn1cnc2cc(NCc3cccs3)ccc21 -59.2%
CCC(=O)NNc1ncnc2ccccc12 -48.5%
O=C(Nc1ccc(OC(F)F)cc1)c1ncc(Cl)c(Cl)c1Cl -54.3%
COc1cccc(NC(=S)NCc2ccccc2)c1 -52%
CCCCn1c(NC(=S)Nc2ccccc2)nc2ccccc21 -51.8%
Cc1ccc(NC(=O)c2cc(-c3ccc(C)o3)nc3ccccc23)cc1 -60%
Nc1c(Cl)ncnc1N/N=C/c1ccc(O)cc1 -43.6%
O=C(c1ccc(S(=O)(=O)Cc2ccccc2Cl)c([N+](=O)[O-])c1)N1CCN(c2ccccn2)CC1 -47.2%
CSc1nsc(SCC(=O)N2CCCCC2)n1 -46.9%
COc1cccc2c(N/N=C/c3ccc(O)c(O)c3)cc(C)nc12 -53.5%
CCOC(=O)c1nnn2c1nc(N1CCN(c3ccccc3)CC1)c1ccccc12 -46.6%
